# Experimental data: a collection of fitness landscapes (doi:10.1016/j.celrep.2020.107928)
# In all, about 81,000 sequences were measured (“one-hybrid fitness for binding NBS DNA”: median about -0.1, highest 2% from about 0.36 on). Some of the results follow.
# B1: Caulobacter ParB omega fusion; a variant is named by its letters at X, in order, B8GW30 (parent)
# chain: MESVVVGEPGMSEGRRGLGRGLSALLGEVDAAPAQAPGEQLGGSREAPIEILQRNPDQPRRTFREEDLEDLSNSIREKGVLQPILVRPSPDTAGEYQIVAGERAWRAAQRAGLKTVPIMVRELDDLAVLEIGIIENVQRADLNVLEEALSYKVLMEKFERTQENIAQTIGKSXSHVANXMRLLXLPDEVQSYLVSGELTAXHARAIAAAADPVALAKQIIEGGLSVRETEALARKAPNLSAGKSKGGRPPRVKDTDTQALESDLSSVLGLDVSIDHRGSTGTLTITYATLEQLDDLCNRLTRGI
# Variants of: B1
# Assay: one-hybrid fitness for binding NBS DNA (the Noc-binding site; scaled: cognate 1, non-cognate 0); higher = stronger binding
# Conditions: with NBS DNA site
# Summary of the method: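 Values were rescaled so that cognate is 1 and non-cognate is 0. Each is a fitness, the log change in a variant's read ratio to wild type from Illumina reads of plasmids before and after selection, with three replicate libraries pooled and variants under 10 reads dropped. Selection of the Caulobacter ParB libraries, four specificity codons randomised, used E. coli USO with a HIS3 reporter, site 19 bp from the promoter, on M9-minus-histidine with 0.1 mM IPTG and 5 mM 3-AT for 48 hours at 37°C.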
row,Variant,one-hybrid fitness for binding NBS DNA
1,QHKN,0.427
2,SVND,≤ 0.2
3,VFKR,≤ 0.2
4,RWMH,≤ 0.2
5,FGHM,≤ 0.2
6,CHYG,≤ 0.2
7,CLDK,≤ 0.2
8,WRPG,≤ 0.2
9,TRTS,≤ 0.2
10,FKYC,≤ 0.2
11,KPEY,≤ 0.2
12,HPNF,≤ 0.2
13,NLNS,≤ 0.2
14,YTSG,≤ 0.2
15,TNIS,≤ 0.2
16,PNLI,≤ 0.2
17,GRNC,≤ 0.2
18,IMIS,≤ 0.2
19,RKWT,0.456
20,HRNW,≤ 0.2
21,EIAP,≤ 0.2
22,CSHM,≤ 0.2
23,DDRS,≤ 0.2
24,YAAI,≤ 0.2
25,NPGG,≤ 0.2

row,Variant,one-hybrid fitness for binding NBS DNA
1,RMNH,0.26
2,CVAA,≤ 0.2
3,WYCT,≤ 0.2
4,LTQK,≤ 0.2
5,RWEM,≤ 0.2
6,PATE,≤ 0.2
7,ARHL,≤ 0.2
8,NNPW,≤ 0.2
9,VDWR,≤ 0.2
10,RQFE,≤ 0.2
11,NAKS,≤ 0.2
12,LITD,≤ 0.2
13,QTIG,≤ 0.2
14,THTR,≤ 0.2
15,WHRG,≤ 0.2
16,FISS,≤ 0.2
17,VCHS,≤ 0.2
18,GPHE,≤ 0.2
19,ETDT,≤ 0.2
20,ADSG,≤ 0.2
21,CPHS,≤ 0.2
22,VGSS,≤ 0.2
23,QYPF,≤ 0.2
24,GRRE,≤ 0.2
25,NAWL,≤ 0.2

row,Variant,one-hybrid fitness for binding NBS DNA
1,FSMI,≤ 0.2
2,TQSR,≤ 0.2
3,KLGG,≤ 0.2
4,GFGL,≤ 0.2
5,SYHE,≤ 0.2
6,WSEL,≤ 0.2
7,LPKL,≤ 0.2
8,MDAW,≤ 0.2
9,WDDR,≤ 0.2
10,CHHE,≤ 0.2
11,KKPM,≤ 0.2
12,RHKW,≤ 0.2
13,DDVR,≤ 0.2
14,TLNY,≤ 0.2
15,PRSI,≤ 0.2
16,REVQ,≤ 0.2
17,LLHI,≤ 0.2
18,KKHL,≤ 0.2
19,MMFG,≤ 0.2
20,ATTP,≤ 0.2
21,LTSW,≤ 0.2
22,FPRV,≤ 0.2
23,TKPT,≤ 0.2
24,SKDP,≤ 0.2
25,EESV,≤ 0.2

row,Variant,one-hybrid fitness for binding NBS DNA
1,DYSC,≤ 0.2
2,EHDM,≤ 0.2
3,QYQM,≤ 0.2
4,RFHY,≤ 0.2
5,CVVF,≤ 0.2
6,ALHE,≤ 0.2
7,AFLG,≤ 0.2
8,WWLN,≤ 0.2
9,NTPL,≤ 0.2
10,LHCT,≤ 0.2
11,LNRH,≤ 0.2
12,VPDM,≤ 0.2
13,TQPL,≤ 0.2
14,TIQF,≤ 0.2
15,TDTC,≤ 0.2
16,VDRL,≤ 0.2
17,VGVK,≤ 0.2
18,LHIV,≤ 0.2
19,LQLA,≤ 0.2
20,KRPK,≤ 0.2
21,SRLY,≤ 0.2
22,SAAV,≤ 0.2
23,RNCI,≤ 0.2
24,LEQE,≤ 0.2
25,CVAT,≤ 0.2

row,Variant,one-hybrid fitness for binding NBS DNA
1,RPGT,≤ 0.2
2,PPGC,≤ 0.2
3,HRTP,≤ 0.2
4,MVES,≤ 0.2
5,HLYS,≤ 0.2
6,GQFR,≤ 0.2
7,TFAW,≤ 0.2
8,VHCK,≤ 0.2
9,HDWC,≤ 0.2
10,LFKS,≤ 0.2
11,TADN,≤ 0.2
12,NPIM,≤ 0.2
13,VPDW,≤ 0.2
14,AKNG,≤ 0.2
15,GNDR,≤ 0.2
16,GCSP,≤ 0.2
17,FSKL,≤ 0.2
18,GKHG,≤ 0.2
19,LIMG,≤ 0.2
20,KSPL,≤ 0.2
21,NVLL,≤ 0.2
22,PSLY,≤ 0.2
23,RAVN,≤ 0.2
24,EMPC,≤ 0.2
25,GTWS,≤ 0.2

row,Variant,one-hybrid fitness for binding NBS DNA
1,CPVI,≤ 0.2
2,LTPR,≤ 0.2
3,VMVV,≤ 0.2
4,NTPR,≤ 0.2
5,HDPT,≤ 0.2
6,PFDV,≤ 0.2
7,RSRN,≤ 0.2
8,SAKY,≤ 0.2
9,PNAC,≤ 0.2
10,RVMY,≤ 0.2
11,PNTW,≤ 0.2
12,RHYR,0.387
13,PYPA,≤ 0.2
14,DKTH,≤ 0.2
15,IRSK,≤ 0.2
16,SGPA,≤ 0.2
17,HLLC,≤ 0.2
18,AISS,≤ 0.2
19,KTLT,≤ 0.2
20,WIAA,≤ 0.2
21,KTHM,≤ 0.2
22,PSMT,≤ 0.2
23,MQGR,≤ 0.2
24,ANAY,≤ 0.2
25,LQCT,≤ 0.2

row,Variant,one-hybrid fitness for binding NBS DNA
1,ELYL,≤ 0.2
2,IQHT,≤ 0.2
3,QSLC,≤ 0.2
4,MGKR,≤ 0.2
5,YNQW,≤ 0.2
6,WVPR,≤ 0.2
7,SKRR,≤ 0.2
8,HGLR,≤ 0.2
9,RKDE,≤ 0.2
10,LGDG,≤ 0.2
11,PQEV,≤ 0.2
12,NTLA,≤ 0.2
13,DNYA,≤ 0.2
14,RVHA,≤ 0.2
15,TNRR,≤ 0.2
16,PIWC,≤ 0.2
17,HPWV,≤ 0.2
18,TSAK,≤ 0.2
19,TKTE,≤ 0.2
20,TLLA,≤ 0.2
21,QCNQ,0.222
22,LGQR,≤ 0.2
23,GTRM,≤ 0.2
24,IFTL,≤ 0.2
25,ITWS,≤ 0.2

row,Variant,one-hybrid fitness for binding NBS DNA
1,RFFY,≤ 0.2
2,DTPT,≤ 0.2
3,SQVV,≤ 0.2
4,RATV,≤ 0.2
5,RLWT,0.23
6,VWVR,≤ 0.2
7,FQGT,≤ 0.2
8,HPGE,≤ 0.2
9,VPYW,≤ 0.2
10,KRPI,≤ 0.2
11,GKDF,≤ 0.2
12,VPRM,≤ 0.2
13,LIHN,≤ 0.2
14,KSSC,≤ 0.2
15,RMLQ,≤ 0.2
16,EHAP,≤ 0.2
17,RLPG,≤ 0.2
18,TAVA,≤ 0.2
19,NHLS,≤ 0.2
20,ILTV,≤ 0.2
